Assay results published in ChEMBL document CHEMBL4888484, “Replenishing the malaria drug discovery pipeline: Screening and hit evaluation of the MMV Hit Generation Library 1 (HGL1) against asexual blood stage Plasmodium falciparum ,using a nano luciferase reporter read-out” (2022).
Screen size: about 150,000 compounds; about 540 (0.36%) showed an effect of 50% or more. This is one part of the list.

System: Plasmodium falciparum
Experiment: Primary screen in NF54 nanoGlo assay, in single point, at 2uM, 72h; a lower Z score goes with more inhibition
Assay type: functional, Erythrocyte
Conditions: timepoint 72 hour

SMILES	% Inhibition	Z score
CCOCCCNC(=O)N1C[C@H](c2nc(C)no2)C2(CCOCC2)C1	-4%	0.83
N[C@H]1CCN2C(=O)c3cc(-c4ccc(F)cc4F)ccc3NC(=O)[C@@H]2C1	29%	-3.28
Cc1nc(NC(=O)[C@@H]2CC(c3ccc(Cl)cc3Cl)=NO2)n[nH]1	-3%	0.43
CCCn1ncnc1COc1ccc(Br)cc1F	-30%	3.5
CC(C)(O)Cn1ncnc1-c1cccn1C1CC1	-5%	0.74
CCOC(C)(C)C(=O)NCCc1nccn1C	4%	-0.88
Cc1ccc(-c2nocc2CCC(=O)O)cc1	-33%	2.89
Cc1nc(C)c(C(=O)N2CC3(C[C@H](N4CCN(C)CC4)CO3)C2)s1	-10%	1.54
O=C1CCCN1CC(=O)N1C[C@H](COCc2ccncc2)C2(CCOCC2)C1	-5%	0.6
CC1CCC(N(C)C(=O)C2=NN(C)C(=O)CC2)CC1 (stereo not given)	-7%	0.63
Cc1ccc(NC(=O)NC2CCN(C)C2c2ccccc2)c(C)n1 (stereo not given)	-8%	1.02
O[C@H](COc1cccc2ccccc12)CN1CCN(c2ccccc2)CC1	-8%	1.08
O=C(Nc1cccc(N2CCCCCC2)c1)N1CCC[C@H]1CO	5%	-0.61
C#CCN1CCN(CC(=O)Nc2sc(C)c(C)c2C)CC1	-15%	1.34
Cc1ccn2c(Nc3ccc4c(c3)OCCO4)c(-c3cccs3)nc2c1	-4%	0.66
CC(=O)N(C)CCc1noc(C2CN(Cc3ccncc3F)C2)n1	5%	-0.66
C[C@@H](CNC(=O)c1ccc(Cl)o1)N1CCOCC1	0%	0.02
O=C(N1CCN(Cc2ccccc2)CC1)[C@@]1(CCO)CC12CCOCC2	5%	-0.92
COC(=O)[C@H](C)NC(=O)Nc1ccccc1Cl	5%	-0.77
O=C1c2ccccc2CS(=O)(=O)N1Cc1ccc(Cl)cn1	-3%	0.33
O=C(COc1ccccc1Cl)Nc1cccc(Cl)c1N1CCCC1	12%	-1.52
Cc1nn(CCC#N)c(C)c1Br	-21%	2.75

SMILES	% Inhibition	Z score
CC[C@H]1CCCCN1C(=O)c1ccc(-n2nc(-c3nnc(C)o3)c(C)c2-c2ccc(OC)cc2)cc1	16%	-2.14
Cc1cc2c(N3CCC[C@H](NS(C)(=O)=O)C3)nccc2o1	10%	-1.46
CCn1nc(C)c(CN2CCc3c(c(C(=O)NCc4nccs4)nn3Cc3ccccc3)C2)c1C	-10%	1.19
CCn1c(NC(=O)[C@@H]2CCCC(=O)N2C)nc2cc(Cl)ccc21	-6%	0.7
Cc1nn(Cc2ccccc2)c2nc(C3CC3)cc(C(=O)N3CCCCCC3)c12	6%	-0.93
COCCN1C(=O)N[C@@](Cc2ccc(F)cc2)(C2CCN(Cc3cc(C)cc(C)c3)CC2)C1=O	-17%	2.23
Oc1ccc(-c2nc(C3CCCCC3)no2)c(F)c1	-10%	2.01
O=c1ccccn1Cc1ncnn1C1Cc2ccccc2C1	-14%	1.61
COc1ccc(-n2nnnc2-c2cnc(-c3ccc(C(N)=O)cc3)nc2C(F)(F)F)cc1	1%	-0.14
CCOc1ncccc1C(=O)N1CC(OCc2ccccc2C)C1	-12%	1.36
Cc1ccc(CN(CC(=O)O)C(C)C)s1	-9%	1.33
CO[C@@H](C)CS(=O)(=O)N(C)CCn1cccn1	-5%	0.58
CC(C)N(C(=O)COC(=O)Cn1ncc(=O)c2ccccc21)C1CCCC1	-1%	0.11
CC1=CCN(C(=O)c2cccc(S(=O)(=O)NC3CCC3)c2)CC1	3%	-0.46
CCN(CC)C(=O)c1cn(C[C@H]2CCCN(Cc3ccoc3)C2)nn1	5%	-0.68
Cc1cccc(COc2cc(C)cnn2)c1	-1%	0.16
CC(C)c1c(C(=O)N2CCC(N3CCCCC3)CC2)cnn1-c1nccc(-c2ccccc2F)n1	20%	-2.56
O=C(c1ccncc1Br)N1CCS(=O)(=O)CC1	-4%	0.65
CO[C@H]1C[C@H]2CN(C(=O)NCCc3ccccc3)[C@@H](Cc3ccccc3)C(=O)N2C1	-5%	0.77
CCCN(CC(=O)N(CCc1ccccc1)Cc1ccco1)C(=O)c1ccccc1F	-2%	0.29
C#CCN(CC(=O)c1cc(C)n(-c2cccc(S(=O)(=O)N3CCOCC3)c2)c1C)Cc1ccco1	-1%	0.16
C[C@](N)(Cc1ccccc1)C(=O)N1CCc2[nH]nc(-c3cccc(F)c3)c2C1	5%	-0.91

SMILES	% Inhibition	Z score
Cn1cccc1C(=O)C(=O)N1CCN(C(c2ccccc2)c2ccccc2)CC1	-13%	1.21
CCN1CCOC(C(=O)NC(C#N)c2cccc(Cl)c2)C1 (stereo not given)	-15%	2.15
Cc1cccc(OCC(=O)O/N=C(\N)Cc2ccc(Cl)cc2Cl)c1C	-13%	1.57
CNC(=O)NCC(=O)N1CCCCCNC(=O)C[C@H]1c1ccccc1	-6%	0.78
CCNC(=O)N1CCc2c(cnc(C)c2-c2noc(-c3cnn(CC)c3C)n2)C1	-6%	0.92
O=C(c1ccco1)N1CCOc2ccc(N3CCOCC3)cc2C1	-1%	0.15
COc1cc(F)cc2sc(NC(=O)[C@@H]3CCCCO3)nc12	-18%	2.34
CC(C)n1nnnc1-c1ccc(NC(=O)Nc2ccn(C)n2)cc1F	-12%	2.29
O=C1OC[C@@H]2CCN(CC3CCCCC3)Cc3ccc(F)cc3N12	10%	-1.22
NC(=O)C(Cc1ccccc1)NC(=O)C1CC2C=CC1C2 (stereo not given)	4%	-0.57
COc1ccc([C@@H]2C[C@H](c3cccc(OC)c3)n3nc(N)nc3N2)cc1	-1%	0.22
Cc1nccn1-c1cc(CNC(=O)c2cccs2)ccn1	-9%	0.96
OCc1cn([C@H]2CCCN(Cc3nnc4n3CCCCC4)C2)nn1	-9%	1.42
COc1cccc([C@@H](CNS(=O)(=O)c2ccc3c(c2)CC(=O)N3)c2c[nH]c3ccccc23)c1OC	1%	-0.15
O=C(NC1CCCCCCC1)c1cccnc1	0%	-0.01
CCN1CCN(C(=O)COCc2ccnn2C)C(C)(C)C1=O	4%	-0.5
CC(C)Cc1nc(Cc2nc(-c3cccnc3)n[nH]2)n(-c2ccccn2)n1	-7%	1.01
CCOc1cccc(Cc2noc(C3(C)CC3)n2)n1	-5%	0.66
CC(=O)N1CCN(C(=O)c2cnn(-c3ncc(C)c(-c4cccs4)n3)c2C2CC2)CC1	-17%	2.17
CC(C)NC(=O)c1ncn2c1C(=O)N(C1CC1)[C@](C)(C(=O)NC1CCCC1)C2	-5%	0.53
CC[C@H]1C(=O)NCCCN1Cc1nc(C)cc(O)n1	-9%	1.4
CNS(=O)(=O)[C@H]1CCN(CC(C)(C)c2ccccc2)C1	2%	-0.33

SMILES	% Inhibition	Z score
CC1CCN(C(=O)N2CCN(c3cccc(Cl)c3)CC2)CC1	-5%	0.91
O=C(c1cc(-c2cccnc2)n(-c2ccccc2)n1)N1CCCC1	-9%	1.17
O=C(NS(=O)(=O)c1ccc(NS(=O)(=O)c2cccc3nsnc23)cc1)c1ccccc1	-24%	2.84
CCc1nnc(CNc2nccc(C3CCCC3)n2)s1	7%	-0.93
CC(=O)N1CCC(N2C[C@@H]3Oc4ccc(C(F)(F)F)cc4C(=O)N(C)[C@@H]3C2)CC1	-4%	0.67
CCN[C@H](C)CNC(=O)c1cc(Br)ccc1O	-2%	0.27
CCn1ncnc1CNc1ccc(Br)cc1CO	-4%	0.71
Fc1cnccc1N1CCC[C@H](CN2CCCCC2)C1	-14%	2.79
CC[C@H](Nc1cc(OC)ncn1)c1nccs1	-1%	0.1
CC(C)Cc1nc(NC(=O)[C@H](c2ccccc2)n2cnnn2)n[nH]1	-12%	1.51
CCC1CC(C)CN1C(=O)CN1C(=O)NC(CC)(CC)C1=O (stereo not given)	6%	-1.06
COc1ccc(CN(C(=O)CC(C)(C)C)C(C)C)cc1OS(C)(=O)=O	-14%	1.33
Cn1cc(C(=O)N2CCc3nc(NC(=O)c4ccco4)sc3C2)nn1	-14%	2.1
CCN1CCc2ccc(OCC(=O)NCc3ccccc3)cc2[C@@H]1c1ccccc1	17%	-1.71
Cc1nc(C)c(-c2nc3c([nH]2)c(C)nn3Cc2cccc(Cl)c2)nc1C	1%	-0.17
CCCc1nc(Cn2c(C)nc(C#N)c2C#N)cs1	-10%	1.18
Cc1ccc(C(=O)N[C@@H](CC(C)C)c2nc3ccccc3n2CC(=O)Nc2ccc3c(c2)OCO3)cc1	-1%	0.11
CCc1nnc2ccc(N3CCC[C@H]3C3CCCC3)nn12	3%	-0.43
CC1CC(C)CN(C(=O)CCCC(=O)N2CCN(c3ccccn3)CC2)C1 (stereo not given)	-9%	1.15
